# Reference: paper PMC10726135
# The other results are listed elsewhere or left out. At the low end of the ranking the order means little. Measured with an extract: partners may take part in the binding.
# Target: T1, HNF4alpha2 (COS-7 nuclear extract) (UniProt P41235)
# T1 sequence: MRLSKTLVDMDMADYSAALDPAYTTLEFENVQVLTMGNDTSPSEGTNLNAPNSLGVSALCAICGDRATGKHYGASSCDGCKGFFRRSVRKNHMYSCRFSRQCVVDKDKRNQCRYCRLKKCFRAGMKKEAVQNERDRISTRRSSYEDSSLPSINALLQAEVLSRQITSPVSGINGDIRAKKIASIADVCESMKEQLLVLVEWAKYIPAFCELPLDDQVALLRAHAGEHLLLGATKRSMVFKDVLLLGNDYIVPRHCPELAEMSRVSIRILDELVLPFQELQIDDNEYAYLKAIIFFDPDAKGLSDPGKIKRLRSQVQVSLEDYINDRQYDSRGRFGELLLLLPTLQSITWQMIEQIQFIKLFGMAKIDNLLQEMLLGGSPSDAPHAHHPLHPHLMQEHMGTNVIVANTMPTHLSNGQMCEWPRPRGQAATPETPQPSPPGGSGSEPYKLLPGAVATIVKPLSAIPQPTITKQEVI
# Test: protein-binding microarray
# Conditions: COS-7 nuclear extract on double-stranded Agilent 4x180k PBM; binding buffer, salt, pH and temperature not given; high values mean tight binding; double strand, one strand shown; sequences stand for … in …GCCTAGGGAGATTAGAGTATCGGTCGA
row,Sequence,binding signal (log2 normalized intensity)
1,CACAGCAAGTAAATTCCGGGGCTGGAATTT,1.13
2,GTCAAATCACTGAAGCGACCCCTCGAGGCA,1.42
3,AAAACAGGTGTTCTTTCCCTCCAGCCCACT,1.31
4,TTCCTGAAGATCGCAGACTTTGGACTCTGC,7.83
5,CTGATGAATAGAAAGAGGTCAATGTACTTA,2.21
6,TGGACCATGAGAAACATCCACATGTGGGTC,0.676
7,GTGTTTATCTTGTGGTTGGAATGTTTCTGG,2.68
8,TTGAGAACCTCCCATCAGCTGGGCTTGTTC,-0.781
9,ACTTGGGGTTCTTGGATCCTCAGGGTTCAT,2.49
10,TCCAAAAGGGCAGCAGTAACCCCCCAGGAG,3.7
11,GCGGGCTGGGGGCTGGGCGCGGGATCCTCT,-1.24
12,ACTATCATACACTATTTTCCTAAATATGTT,0.801
13,GGTCAAAGAGCAATCATCAAGGTGGTTTCA,1.71
14,CCAGCCCAGGTGGCTGCATCCTTCTCCTCC,-1.11
15,AGGTCAATGCCAGGACCCTGTGGGACTGGT,-1.06
16,GCAGAGTGGAGGCCAGCGCCAGGCTGGGGG,-1.11
17,TGATGAAGCCTATAGTGCTCCCTCCTGTGG,-0.606
18,CCATTTCACCTTTGCCCTGTCAGTCTCTCA,4.05
19,ACTCAGTTATCAACCTTATCAGCAGGACAC,0.893
20,GACTGGCATTCCCCTATGTCTAGGACTCTA,0.945
21,GGACTTTGGGCTGTGTTTTGCCCCTGCAGA,3.66
22,TCTGTTCATTGATAAAGGGTTACAAACTTC,0.913
23,GAGGGCATGTTGAGTGGAATATGAGGTCAG,1.82
24,TTAGGAGGATGACAAAGAGCAAGTGACCCT,3.83
25,GAAACAGTCTGATTCTAGGGCCCATGCCCT,0.599

row,Sequence,binding signal (log2 normalized intensity)
1,GAACCCCCAGGTCACCCACAACCTACCCTT,4.35
2,CTTTGGCCGTGCATGCTTGGACTCTGAAGG,3.14
3,CCCTGTTATTAGTCCAAGAGATTTCTACAG,-0.195
4,AAGCAGCTGTGATGAGGCCAGCAGGGTGCC,-1.06
5,CTTCATTGTGCACCCACTTGGATAATTTCT,0.523
6,GTCATAATTTGATCCAGTGTGCAAATGTGT,2.28
7,AAAAAGATGGTCTTACAACATAGTGATTTA,-0.107
8,CTTTGACCCTGCTGTAGTGTGTAAGTATGC,1.75
9,TTCAGCAGCATCTAAACTCTACTCACTAGA,-1.18
10,TTTGTAGGCAGCTAGGCAGGCTCAGAACTA,-1.15
11,TCCACCCTGAAAGAGAGGAGGCTGAAGACT,-1.24
12,ATAGCTGCCTGTGTGTTCTGCTATTCATTA,1.18
13,CAGAGGAACAGAGGGGTCTGAGCACATCAC,-1.17
14,AATGAGGTCAATAGTCCAGATACAGATGGC,3.23
15,GGGGACGGAAGTTGCAGTGAGCTAAGATTG,-1.09
16,AGAACTAAGCTGTTGCGTAAGGGTCTGACC,1.46
17,GATACACCCCTAATGAATGGCAAATTAAAC,-0.289
18,TTTTCTTCCACCTCCCTCCATGCTGTAGAT,2.26
19,TGCTTGATAAGACTGACAACCGGCTCTTCC,-1.1
20,GCAATCTAAGTCTGGCTCCTGAAACTAAAG,-1.24
21,GAGGAGAGGCAGTGGCCTGAGGCAGCCAGT,-1.09
22,CACCCTGTTGCACAAGCTGTGTGGCATGGT,0.16
23,AAGAGCAATCATCAAGGTGGTTTCACTTCA,0.297
24,CCTCTTCCCTCATATAATTTACATAACAGG,1.49
25,ATTCATGGACAGCCTTGCCACATGGTCACC,-0.761

row,Sequence,binding signal (log2 normalized intensity)
1,AGGACAAAAGTAAATATGGTTTACCATATT,-0.934
2,TGTTGAAAAGAGCATAAGGTTTCCATCAAG,-0.784
3,GCATGCTATTTCAGGAATGTGACCCCTTTC,4.81
4,GTCACCTCCACCCACCCGTGCATCAACATA,3.62
5,ACATTCTGAGCCAGCACTTCGACCTCACAT,1.85
6,AAAGAGGGTGTAAGAGTGAACTCTGACCAT,4.23
7,TGAGAAAAGAACCATGAGAGGGTTAAAAAC,-0.969
8,GCCCAACAGCATTAAGCTGAGGCAGAGTTG,-1
9,TCCTCCAACTGCCACGGTAAATATTATCAT,0.708
10,TATCCAATAAAACACTATCTTCTTTCAGTG,0.883
11,TTTATTTAGCCTCACTAAGATAGGGAAGCT,-1.13
12,AAGCAATGGCTACCAAGGAGTGGACTGTTC,1.7
13,CTTCCACCCACTTTATCTTCTATAGGAATT,0.867
14,GACAGGAGGTATGCCAGGAATGCTGAGGAG,-1.19
15,TTTGGAATTAAGGAGATTTGGCTTTGAATT,-1.07
16,CCTCCTCTCTGAGCAGTCAAACTGGTTTCT,0.459
17,TCTGCAGGGTTAAATCTCGGTATAATTCCT,-1.14
18,GGATGGGGTCACGAGACGGTGTCCCTGGCC,-0.831
19,GTGCACCCTTCCTCTGCAGCCGCCCTTTTG,2.32
20,GTGGTCATGTAGGTGTCTCAGGAATGTCCT,1.85
21,TTTCATCTCTGTAAACTGGCCAGAAGGTCA,2.81
22,CCCTTTGACCTCTGCTTCCTGCTACAGAGC,1.87
23,GGTTGTGAGGGAGGGCACAGGCAACAGAGG,-0.917
24,TGGGACCATGAGTACCAGGTCAAAAGTTCA,3.98
25,CACCTTCTTCCTAGGCAATCCCATGACCTT,3.25

row,Sequence,binding signal (log2 normalized intensity)
1,ATGCAGCCTTGGGCAAGTTACTTAAGCCAT,-1.18
2,TTTCTGAGAAACTTCTTTGTGATGTGTGGA,1.83
3,TGCAAGCAAACCTGCCCTTTGCTCCAGAGG,3.04
4,TCACTCAGTCCACATGGTGTCTTTTGTTGT,1.68
5,GGTCAATGTCCACACCCCAGTTTCATCAAC,2.77
6,CCAGGTCGAAGTTTATGTTTACTGTGGATC,2.15
7,TTCAATGGTGCTTTTGATATTGTTGTAAAG,2.36
8,TCCAGGGCCGCCCAAGCGAATATGTCAGGC,-1.16
9,TTTCTTCCCTAATGGACATCTCTAGGAACT,-1.01
10,TAGGAATCACACAACTTTCATTGAACTGCT,-1.23
11,GGCTCAGGACAGGTGAGCCCGGCAGAGAGT,-1.03
12,TCAACCTTCATTCTCATCTTCTATGATAAG,1.16
13,CATAACTGACTGTGTCTGTTTACCCACTTG,0.744
14,CGACCTCCCCGTCACCCTCCCCGCCACCCC,6.67
15,CACAGTACTGTCTTTTTGCCACTAGGGGTC,3.13
16,AGAGACAGAGAGAGAGAGAGAATGACCCTT,4.44
17,TGGTGGAGCAAAAAGGCCGTTCAAAGGCAG,-1.06
18,GTGATTTATGAAGGGGGGTGGGGAGGCAGG,-1.16
19,AACTCTAGTGATCTTATCAGCAAGGGCATT,1.4
20,GTTCATTTTACAATGCAAACCTAACAGGCT,-1.13
21,TGTGATCTCTAGACTAAGGGCACAGGGTGA,1.32
22,TGACACTCGAGGATCAGAGACACGATGTTC,-1.2
23,CCACAACAGAACCTTGTTTTGTCTTCTGTT,0.794
24,GTTCCAGCTGCTTCAGGAGCCCCCTGGGGG,-1.08
25,AAGGCGGAAGTACTGCCCTTAACTCCCGGC,-1.15

row,Sequence,binding signal (log2 normalized intensity)
1,GGGGAGGGCATGGACTTTGGAATTAAGGAG,5.45
2,GCCAAAAGTAGGGAGGAGGGGAGGGGCCCA,-1.24
3,ACCGCTCACTGCTCCAGCCACTCATTCTTG,-1.14
4,CAGGCCCCAGGGACTTTGGCCTTACTTGGC,4.14
5,ACAAATGAGCAAACTAATGGAATGTGATAG,-1.08
6,AGCCAATATTTGCAAGGCTGTTGGCAGATT,-1.16
7,CCTGAGGCTGTGGAGGGCAGTGGATGGGGG,-1.19
8,CCTTTACCCTGACCTGTCAAGCAATGATCT,1.25
9,CCCCTCAGTTTTTCTCTTTTGACCTTTGGA,8.9
10,AAGTCCAGTCTTATCTGAGACTCAAGGCAA,-0.968
11,AAACAAATTTAGCAAGACTGCAAAATAGAC,-1.13
12,AGGGATGGGAACCGACCTTTGGTTCCTGAA,4.79
13,TTCCAGGATGAAGGAAGAGGGAAGACCAAA,-0.968
14,TTTCATCTTCTTAGCCTTTGAACCCCACAC,4.78
15,CTTCACATATTTTGAAAGAAAGAGACCTTT,3.75
16,GATAGCTCAGGGATTAACGACTCATGAAGA,-1.1
17,ATTTACATTCCAGAGTAAACGTTTCTCTCT,-1.15
18,CCAAAGGGCATTCTGGAGTTTGGAACCAAA,3.38
19,ATTTAGCCTTTAACCTGCAGTTTCCCTATT,-0.0478
20,ACACTCCCATCTGCCATCAGTATCCCAGTT,0.905
21,ACTTTGGACCTTTGTGTGTGTGTGTGTGTG,3.6
22,CTTTATACCTGTACGTTACTCTGTACCTCG,1.19
23,GATCATGATTATAAACCTGCCTACATCAAG,-1.05
24,TCCAAAGTCCTTCTAAAGCAAATTTATAGG,0.432
25,CTGTCAAGTCCAAAGTTCTTGGCCAGGCAT,2.5

row,Sequence,binding signal (log2 normalized intensity)
1,TGGTTTAGATAAGCACTTCAAAGGTCGTGT,2.92
2,GGGACTTCAAAGGCTCCCCTAATCCCTGTG,-0.798
3,AAATCACACGAAACAAGTAGCAGTTCAAAA,-1.08
4,ATGTTCCATGTTAGGGGTTTGTCCAAGAAA,1.65
5,TAAGACAACTTTCTCCTCCAGGACCTTGCC,-1.07
6,ACCCCCCACTCTTCATATCTTCCCATACTG,1.48
7,TAGGTATGATAACCCCCGTCACTGCAAGGC,3.56
8,ACTTGCCACGGAATCCCAGTTCTGATACAC,-1.13
9,TTCAGAAGACTTCCTGGCCTCTCTGCAAAT,-0.756
10,ACCTGCCTAACATTCTCTAATCAGGTCGCT,-1.15
11,ATTAACTAACCTTTGAACCAGATGGCCCTC,3.62
12,GAAGCCAGGGGTAAGTTTCTAACTACCATG,-1.19
13,CAGGGGGAGGCTCAGAGTCTGTGGAGACAC,-1.16
14,ACTTATTACCGGTGTGACTTTGGTTGGATT,1.93
15,ATGCCTGGGGTTCCAGTTACTGGAGGCTGG,-0.725
16,ACTGACAGAGATCAAAAACCAAAGCTGGAG,-1.08
17,CCAGGGACCAGGAAGGCAGTAAGAGAGAAA,-1.09
18,GCTAATGTCTCTCTGGCCGGAGGGGAGGTT,0.0972
19,CTCCGTTTGCTATGGCCTTTCTTCATTGTT,1.76
20,TCTCCAAAATAGGGTAGTTTGGAGATGCCG,-0.244
